Binding signal data for 31 molecules are collected here from paper PMC9911399, “Two distinct binding modes provide the RNA-binding protein RbFox with extraordinary sequence specificity”.

The chains are these.
B1: AUAGAUU (DNA:RNA)
RNA: GGGAGACCGGAAUUCAGAUUGUCCAUAGAUUUUAAAUCCCGUCGUAGCCACCA
DNA 1: CAATCTGAATTCCGGTCTCCC
DNA 2: TGGTGGCTACGACGGGATT
B2: GUCGAUA (DNA:RNA)
RNA: B1 RNA with A25G, A27C, U31A
DNA 1: CAATCTGAATTCCGGTCTCCC
DNA 2: TGGTGGCTACGACGGGATT
B3: CUACGAA (DNA:RNA)
RNA: B1 RNA with A25C, G28C, A29G, U30A, U31A
DNA 1: CAATCTGAATTCCGGTCTCCC
DNA 2: TGGTGGCTACGACGGGATT
B4: GCCAACA (DNA:RNA)
RNA: B1 RNA with A25G, U26C, A27C, G28A, U30C, U31A
DNA 1: CAATCTGAATTCCGGTCTCCC
DNA 2: TGGTGGCTACGACGGGATT
B5: GCGGAUU (DNA:RNA)
RNA: B1 RNA with A25G, U26C, A27G
DNA 1: CAATCTGAATTCCGGTCTCCC
DNA 2: TGGTGGCTACGACGGGATT
B6: GCACUAA (DNA:RNA)
RNA: B1 RNA with A25G, U26C, G28C, A29U, U30A, U31A
DNA 1: CAATCTGAATTCCGGTCTCCC
DNA 2: TGGTGGCTACGACGGGATT
B7: ACCCCUA (DNA:RNA)
RNA: B1 RNA with U26C, A27C, G28C, A29C, U31A
DNA 1: CAATCTGAATTCCGGTCTCCC
DNA 2: TGGTGGCTACGACGGGATT
B8: AAUCGGA (DNA:RNA)
RNA: B1 RNA with U26A, A27U, G28C, A29G, U30G, U31A
DNA 1: CAATCTGAATTCCGGTCTCCC
DNA 2: TGGTGGCTACGACGGGATT
B9: ACGUGCC (DNA:RNA)
RNA: B1 RNA with U26C, A27G, G28U, A29G, U30C, U31C
DNA 1: CAATCTGAATTCCGGTCTCCC
DNA 2: TGGTGGCTACGACGGGATT
B10: CUCAUAA (DNA:RNA)
RNA: B1 RNA with A25C, A27C, G28A, A29U, U30A, U31A
DNA 1: CAATCTGAATTCCGGTCTCCC
DNA 2: TGGTGGCTACGACGGGATT
B11: GAGGUUU (DNA:RNA)
RNA: B1 RNA with A25G, U26A, A27G, A29U
DNA 1: CAATCTGAATTCCGGTCTCCC
DNA 2: TGGTGGCTACGACGGGATT
B12: CGACCUC (DNA:RNA)
RNA: B1 RNA with A25C, U26G, G28C, A29C, U31C
DNA 1: CAATCTGAATTCCGGTCTCCC
DNA 2: TGGTGGCTACGACGGGATT
B13: CAAAUUG (DNA:RNA)
RNA: B1 RNA with A25C, U26A, G28A, A29U, U31G
DNA 1: CAATCTGAATTCCGGTCTCCC
DNA 2: TGGTGGCTACGACGGGATT
B14: GAAUACA (DNA:RNA)
RNA: B1 RNA with A25G, U26A, G28U, U30C, U31A
DNA 1: CAATCTGAATTCCGGTCTCCC
DNA 2: TGGTGGCTACGACGGGATT
B15: UAGUCAG (DNA:RNA)
RNA: GGGAGACCGGAAUUCAGAUUGUCCUAGUCAGUUAAAUCCCGUCGUAGCCACCA
DNA 1: CAATCTGAATTCCGGTCTCCC
DNA 2: TGGTGGCTACGACGGGATT
B16: ACGAGCG (DNA:RNA)
RNA: B15 RNA with U25A, A26C, U28A, C29G, A30C
DNA 1: CAATCTGAATTCCGGTCTCCC
DNA 2: TGGTGGCTACGACGGGATT
B17: AAAAGGA (DNA:RNA)
RNA: B1 RNA with U26A, G28A, A29G, U30G, U31A
DNA 1: CAATCTGAATTCCGGTCTCCC
DNA 2: TGGTGGCTACGACGGGATT
B18: CACUCCG (DNA:RNA)
RNA: B15 RNA with U25C, G27C, A30C
DNA 1: CAATCTGAATTCCGGTCTCCC
DNA 2: TGGTGGCTACGACGGGATT
B19: UAAGCCG (DNA:RNA)
RNA: B15 RNA with G27A, U28G, A30C
DNA 1: CAATCTGAATTCCGGTCTCCC
DNA 2: TGGTGGCTACGACGGGATT
B20: CUUCGCU (DNA:RNA)
RNA: B1 RNA with A25C, A27U, G28C, A29G, U30C
DNA 1: CAATCTGAATTCCGGTCTCCC
DNA 2: TGGTGGCTACGACGGGATT
B21: UUGUUGA (DNA:RNA)
RNA: B15 RNA with A26U, C29U, A30G, G31A
DNA 1: CAATCTGAATTCCGGTCTCCC
DNA 2: TGGTGGCTACGACGGGATT
B22: AGAUGAU (DNA:RNA)
RNA: B1 RNA with U26G, G28U, A29G, U30A
DNA 1: CAATCTGAATTCCGGTCTCCC
DNA 2: TGGTGGCTACGACGGGATT
B23: GUGACGG (DNA:RNA)
RNA: B15 RNA with U25G, A26U, U28A, A30G
DNA 1: CAATCTGAATTCCGGTCTCCC
DNA 2: TGGTGGCTACGACGGGATT
B24: CCCGCUC (DNA:RNA)
RNA: B1 RNA with A25C, U26C, A27C, A29C, U31C
DNA 1: CAATCTGAATTCCGGTCTCCC
DNA 2: TGGTGGCTACGACGGGATT
B25: AGUUUCC (DNA:RNA)
RNA: B1 RNA with U26G, A27U, G28U, A29U, U30C, U31C
DNA 1: CAATCTGAATTCCGGTCTCCC
DNA 2: TGGTGGCTACGACGGGATT
B26: AGGUACC (DNA:RNA)
RNA: B1 RNA with U26G, A27G, G28U, U30C, U31C
DNA 1: CAATCTGAATTCCGGTCTCCC
DNA 2: TGGTGGCTACGACGGGATT
B27: UGAUAGG (DNA:RNA)
RNA: B15 RNA with A26G, G27A, C29A, A30G
DNA 1: CAATCTGAATTCCGGTCTCCC
DNA 2: TGGTGGCTACGACGGGATT
B28: ACCCGGA (DNA:RNA)
RNA: B1 RNA with U26C, A27C, G28C, A29G, U30G, U31A
DNA 1: CAATCTGAATTCCGGTCTCCC
DNA 2: TGGTGGCTACGACGGGATT
B29: CGAGUGU (DNA:RNA)
RNA: B1 RNA with A25C, U26G, A29U, U30G
DNA 1: CAATCTGAATTCCGGTCTCCC
DNA 2: TGGTGGCTACGACGGGATT
B30: CCACACG (DNA:RNA)
RNA: B1 RNA with A25C, U26C, G28C, U30C, U31G
DNA 1: CAATCTGAATTCCGGTCTCCC
DNA 2: TGGTGGCTACGACGGGATT
B31: UCCUUUG (DNA:RNA)
RNA: B15 RNA with A26C, G27C, C29U, A30U
DNA 1: CAATCTGAATTCCGGTCTCCC
DNA 2: TGGTGGCTACGACGGGATT

Residue numbers refer to the chain shown, from its start. Some of the results follow.

The test has as its target T1, RBFOX1 RRM (Homo sapiens, UniProt Q9NWB1 109-208).
T1 sequence: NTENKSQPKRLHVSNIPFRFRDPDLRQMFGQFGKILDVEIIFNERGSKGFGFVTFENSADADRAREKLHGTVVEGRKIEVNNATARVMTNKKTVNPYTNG
The test is described as follows: EMSA; HiTS-Eq, 1 nM pool, 10 min; buffer printed only for the single-RNA assays: 10 mM Tris pH 7.5, 150 mM NaCl, 3.4 mM EDTA, 0.001% NP-40, 30 C. As to conditions: tags: His6 N-terminal (pET28a); label: 5' 32P. Put shortly:
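Relative association constants, normalised to the cognate motif, were derived by comparing read counts of each RNA species with those of the control reaction. The RNA sequenced was the free fraction, separated by 8% native PAGE after a 10 min equilibration in 50 µL of 1 nM 5′-radiolabelled RNA (7 randomized nucleotides) with increasing concentrations of purified wild-type or mutant RbFox RRM.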
In general terms: A gel shift assay detects complexes by their altered migration in electrophoresis.
In the case of B1, the binding signal was 0.00434 KA relative to UGCAUGU.

With B2, the binding signal is 0.0091 KA relative to UGCAUGU.

As to B3, the binding signal is 0.00468 KA relative to UGCAUGU.

On to B4, for which the binding signal was 0.00318 KA relative to UGCAUGU.

As for B5, the binding signal was 0.0163 KA relative to UGCAUGU.

As for B6, the binding signal was 0.00455 KA relative to UGCAUGU.

Take B7: the binding signal was 0.00266 KA relative to UGCAUGU.

B8: the binding signal is 0.00229 KA relative to UGCAUGU.

With B9, the binding signal is 0.0141 KA relative to UGCAUGU.

For B10, the binding signal was 0.00126 KA relative to UGCAUGU.

Take B11: the binding signal was 0.022 KA relative to UGCAUGU.

On to B12, for which the binding signal is 0.0075 KA relative to UGCAUGU.

Turning to B13, the binding signal is 0.00423 KA relative to UGCAUGU.

With B14, the binding signal is 0.00428 KA relative to UGCAUGU.

Turning to B15, the binding signal is 0.0126 KA relative to UGCAUGU.

B16: the binding signal is 0.014 KA relative to UGCAUGU.

B17: the binding signal was 0.00105 KA relative to UGCAUGU.

Consider B18, for which the binding signal was 0.00227 KA relative to UGCAUGU.

In the case of B19, the binding signal is 0.00658 KA relative to UGCAUGU.

As for B20, the binding signal was 0.0136 KA relative to UGCAUGU.

Consider B21, for which the binding signal is 0.0329 KA relative to UGCAUGU.

For the molecule B22, the binding signal was 0.00975 KA relative to UGCAUGU.

For B23, the binding signal was 0.0168 KA relative to UGCAUGU.

For the molecule B24, the binding signal was 0.00969 KA relative to UGCAUGU.

For B25, the binding signal was 0.0149 KA relative to UGCAUGU.

Take B26: the binding signal is 0.00718 KA relative to UGCAUGU.

Take B27: the binding signal was 0.0108 KA relative to UGCAUGU.

For the molecule B28, the binding signal is 0.00307 KA relative to UGCAUGU.

For the molecule B29, the binding signal was 0.018 KA relative to UGCAUGU.

In the case of B30, the binding signal is 0.0022 KA relative to UGCAUGU.

Take B31: the binding signal is 0.0195 KA relative to UGCAUGU.
